Residue numbers refer to the chain shown, from its start.

The target of the assay is T1, human LRRC15 expressed on cells (human, UniProt Q8TF66 22-581).
T1 sequence (looked up): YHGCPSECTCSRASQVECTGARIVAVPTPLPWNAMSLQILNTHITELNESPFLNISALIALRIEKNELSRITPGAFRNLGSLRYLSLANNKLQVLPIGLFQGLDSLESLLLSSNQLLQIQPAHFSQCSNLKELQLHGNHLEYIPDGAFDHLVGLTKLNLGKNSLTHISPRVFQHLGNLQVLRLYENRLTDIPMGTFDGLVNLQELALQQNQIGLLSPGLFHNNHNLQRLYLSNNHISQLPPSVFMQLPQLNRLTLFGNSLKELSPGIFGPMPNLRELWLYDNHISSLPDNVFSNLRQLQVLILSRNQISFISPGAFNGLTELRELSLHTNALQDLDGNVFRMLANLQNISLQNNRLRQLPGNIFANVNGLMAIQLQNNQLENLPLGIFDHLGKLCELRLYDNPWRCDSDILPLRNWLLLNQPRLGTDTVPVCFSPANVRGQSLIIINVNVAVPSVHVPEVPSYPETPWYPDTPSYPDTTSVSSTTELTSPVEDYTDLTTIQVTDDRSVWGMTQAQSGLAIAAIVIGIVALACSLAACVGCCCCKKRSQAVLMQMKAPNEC
Nature of the assay: cell-based or functional assay.

B1: LRRC15-TTC (TPP-17078) (other)
heavy: EVQLVQSGAEVKKPGASVKVSCKASGYKFSSYWIEWVKQAPGQGLEWIGEILPGSDTTNYNEKFKDRATFTSDTSINTAYMELSRLRSDDTAVYYCARDRGNYRAWFGYWGQGTLVTVSS[human IgG1 constant region omitted]
light: DIQMTQSPSSLSASVGDRVTITCRASQSISSYLNWYQQKPGGAPKFLIYYASSLQSGVPSRFSGSGSGTDYTLTISSLQPEDFATYYCQQGFSLPWTFGGGTKVEIKRTVAAPSVFIFPPSDEQLKSGTASVVCLLNNFYPREAKVQWKVDNALQSGNSQESVTEQDSKDSTYSLSSTLTLSKADYEKHKVYACEVTHQGLSSPVTKSFNRGEC
modifications: as for the heavy chain; sites not stated; 3,2-HOPO chelator coupled by amide bonds (NHS/EDC; lysine ε-amino groups), complexed with thorium-227; sites not stated
Consider B1, for which the “IC50 (kBq/ml), cell viability, Cell Titer Glo, HT29-LRRC15” value is 0.09 kBq/ml and the “IC50 (kBq/ml), cell viability, Cell Titer Glo, Saos-2” value was determined as 0.3 kBq/ml.

B2: LRRC15-TTC (TPP-17421) (other)
heavy: B1 heavy with T57W, G108Q
light: B1 light with F92L, S93E
modifications: as for the heavy chain; sites not stated; 3,2-HOPO chelator coupled by amide bonds (NHS/EDC; lysine ε-amino groups), complexed with thorium-227; sites not stated
As to B2, the “IC50 (kBq/ml), cell viability, Cell Titer Glo, HT29-LRRC15” value turned out to be 0.1 kBq/ml and the “IC50 (kBq/ml), cell viability, Cell Titer Glo, Saos-2” value came out at 0.34 kBq/ml.

(Values after patent US20240108766A1 (Bayer, published 2024).)
